The other results are listed elsewhere or left out. The data describe in vitro nicking of single-stranded DNA by Rep domains for 1 h at 37 °C with 3 µM enzyme; only the middle of the 90-letter strands is printed. Numbers give uncut DNA relative to the enzyme-free pool, as log2; more negative means more cut, near 0 not cut, and no call is made. The scaling is to total reads; uncut strands gain when others are lost, and binding without cutting may add a little.
What was measured:
Assay in all cases: uncleaved DNA left, log2 of reads against the no-enzyme library (log2 ratio); higher = less cleavage (more negative = more Rep cleavage of the k-mer); sequences stand for … in CTCGTCCG…ACCGGAGA
[1] = system: T1, Rep nickase domain of Muscovy duck circovirus
T1 sequence (protein, residues 1-111, tag omitted): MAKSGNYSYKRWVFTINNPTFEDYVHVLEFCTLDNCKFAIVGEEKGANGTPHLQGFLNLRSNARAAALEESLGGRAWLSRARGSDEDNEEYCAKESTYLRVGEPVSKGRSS
Procedure: (§1)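 A pool of 90-nt single-stranded DNAs with seven random bases just before the constant AC of the nick site (name = the seven bases) was cut by 3 µM recombinant His6-SUMO-tagged Rep nickase domain (300 nM DNA, 50 mM HEPES pH 8.0, 50 mM NaCl, 1 mM MnCl2, 1 h, 37 °C, three replicates). Uncut DNA was amplified and sequenced.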

[2] = system: T2, Rep nickase domain of banana bunchy top virus
T2 sequence (protein, residues 1-94, tag omitted): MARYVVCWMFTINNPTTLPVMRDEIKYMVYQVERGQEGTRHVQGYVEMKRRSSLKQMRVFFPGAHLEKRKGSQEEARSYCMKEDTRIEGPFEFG
Procedure: as §1

[3] = system: T3, Rep nickase domain of cabbage leaf curl virus
T3 sequence (protein, residues 1-116, tag omitted): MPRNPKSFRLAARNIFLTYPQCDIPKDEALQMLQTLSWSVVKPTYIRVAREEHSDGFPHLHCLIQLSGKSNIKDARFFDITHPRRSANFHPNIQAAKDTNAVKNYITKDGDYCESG
Procedure: as §1

[4] = system: T4, Rep nickase domain of chickpea chlorotic dwarf virus
T4 sequence (protein, residues 1-124, tag omitted): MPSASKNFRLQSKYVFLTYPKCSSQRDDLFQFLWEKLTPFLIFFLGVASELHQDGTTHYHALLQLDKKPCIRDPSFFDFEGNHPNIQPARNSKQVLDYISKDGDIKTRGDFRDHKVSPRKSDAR
Procedure: as §1

[5] = system: T5, Rep nickase domain of faba bean necrotic yellows virus
T5 sequence (protein, residues 1-98, tag omitted): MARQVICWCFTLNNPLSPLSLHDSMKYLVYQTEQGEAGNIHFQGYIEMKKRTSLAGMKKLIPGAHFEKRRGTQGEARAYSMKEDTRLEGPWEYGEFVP
Procedure: as §1

[6] = system: T6, Rep nickase domain of maize striate mosaic virus
T6 sequence (protein, residues 1-117, tag omitted): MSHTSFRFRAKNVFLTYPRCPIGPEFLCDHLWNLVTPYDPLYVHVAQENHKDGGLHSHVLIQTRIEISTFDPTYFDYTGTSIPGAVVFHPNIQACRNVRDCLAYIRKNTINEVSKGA
Procedure: as §1

[7] = system: T7, Rep nickase domain of porcine circovirus 2
T7 sequence (protein, residues 2-116, tag omitted): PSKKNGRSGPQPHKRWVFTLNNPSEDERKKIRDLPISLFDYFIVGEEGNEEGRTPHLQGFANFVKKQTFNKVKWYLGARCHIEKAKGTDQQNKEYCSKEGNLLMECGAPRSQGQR
Procedure: as §1

[8] = system: T8, Rep nickase domain of tomato golden mosaic virus
T8 sequence (protein, residues 1-124, tag omitted): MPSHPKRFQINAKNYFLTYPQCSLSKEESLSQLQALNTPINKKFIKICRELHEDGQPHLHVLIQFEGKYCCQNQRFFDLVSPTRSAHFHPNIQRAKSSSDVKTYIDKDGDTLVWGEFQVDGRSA
Procedure: as §1

[9] = system: T9, Rep nickase domain of tomato yellow leaf curl virus
T9 sequence (protein, residues 1-136, tag omitted): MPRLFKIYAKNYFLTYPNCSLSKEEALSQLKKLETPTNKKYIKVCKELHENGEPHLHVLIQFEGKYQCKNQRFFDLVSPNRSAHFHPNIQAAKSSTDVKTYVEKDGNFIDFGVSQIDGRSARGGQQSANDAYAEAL
Procedure: as §1

[10] = system: T10, Rep nickase domain of wheat dwarf virus
T10 sequence (protein, residues 1-137, tag omitted): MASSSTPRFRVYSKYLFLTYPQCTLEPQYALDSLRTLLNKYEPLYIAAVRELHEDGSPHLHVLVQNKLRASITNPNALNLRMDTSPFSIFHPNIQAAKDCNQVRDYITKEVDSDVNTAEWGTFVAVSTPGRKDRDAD
Procedure: as §1

Sequence | uncleaved DNA left (log2) [1] | uncleaved DNA left (log2) [2] | uncleaved DNA left (log2) [3] | uncleaved DNA left (log2) [4] | uncleaved DNA left (log2) [5] | uncleaved DNA left (log2) [6] | uncleaved DNA left (log2) [7] | uncleaved DNA left (log2) [8] | uncleaved DNA left (log2) [9] | uncleaved DNA left (log2) [10]
CGGATCA | -0.0194 | 0.148 | 0.397 | 0.624 | 0.01 | 1.12 | 0.0462 | -0.0242 | 0.132 | 0.165
ATACTCC | -0.00251 | -0.121 | -0.051 | -0.141 | 0.0242 | 0.62 | 0.0995 | -0.0189 | -0.088 | -0.118
CAGGCTG | 0.00107 | 0.103 | 0.271 | 1.38 | 0.0724 | 1.71 | 0.116 | 0.0703 | -0.119 | -0.0711
TTAAGCT | 0.0375 | -0.115 | -2.69 | -3.04 | -0.00443 | -1.15 | 0.00129 | -0.214 | -0.0726 | -0.402
TAGGTAC | 0.0494 | 0.14 | 0.0899 | 0.427 | -0.0871 | 0.358 | 0.137 | -0.0177 | 0.0499 | 0.0818
ATCCATA | 0.0671 | 0.109 | -0.2 | -1.07 | 0.0422 | -0.928 | -0.147 | -0.0302 | 0.115 | 0.0289
TATATTG | -0.0567 | -0.0628 | -0.506 | -0.657 | -0.0131 | -1.2 | 0.0349 | -0.0534 | -0.0374 | -0.0686
GAAGGTT | 0.172 | 0.0397 | 0.248 | 0.722 | 0.0589 | 1.76 | 0.186 | 0.305 | -0.0942 | 0.127
GCAGGTG | -0.131 | -0.0959 | -0.431 | -0.257 | -0.0192 | -0.768 | 0.156 | 0.0735 | -0.149 | -0.152
GCTACCG | -0.0491 | -0.0879 | -0.699 | -0.995 | -0.0297 | -0.955 | 0.0172 | 0.033 | -0.101 | -0.186
CCATGAG | 0.0507 | -0.0939 | -0.604 | 0.651 | -0.0527 | -0.416 | 0.154 | -0.0276 | -0.0156 | -0.0672
CGGTGGA | 0.0439 | -0.0215 | 0.31 | 0.607 | 0.193 | 0.547 | 0.132 | 0.0997 | -0.0657 | -0.0155
TACGATA | -0.072 | -0.0817 | -0.404 | -2.52 | -0.0154 | -0.504 | -0.312 | -0.104 | -0.132 | -0.0905
AAGACCA | -0.0611 | -0.0388 | 0.04 | -0.53 | -0.155 | 0.396 | -0.457 | -0.0566 | -0.146 | 0.0681
TGAGTGG | 0.0556 | 0.000743 | 0.144 | 0.324 | 0.0394 | 0.0774 | 0.106 | 0.0617 | 0.147 | 0.118

— the supplement of paper PMC7826260
